Over roughly 4,500 sequences, “median log2 fold change of GCK-ALFA target abundance (FLAG IP / Myc IP barcode read proportion)” has its median near 0.078; the lowest 2% begin near -0.6. The list shows a part of the results.
B1: GBRAP_11_2607 (protein)
chain: KKETLKEAAELAKKLAEAVKKLIEEGVDNEELRKEIEELIKKLKELVEKELDEADQKDVKVIEELWKEALEDPENQVEYLKQLQAAADVLSGNYLLDIEE
B2: GBRAP_125_3151 (protein)
chain: KKEALLRLAEALARAAGFSEEEIAELRRIAEASDPAQTVVAILLAAGFEEAAELAEKVLDKLTEEELEELIALAEASLDESLEEFYERLLALLKELLARL
B3: GBRAP_35_5527 (protein)
chain: DTDRTAAEMLVAYIEDLTLAVPDMPVEDLARLATAAADAAEELAKDLKNDKESLEKLLKALTALRDAIEKHHGDDPLMQEVIARIDAVIKELEKRIKEAE
B4: GBRAP_160_4801 (protein)
chain: MERVEKVVEIVREELEEALEMAKGESNAERVNIFDVELGAAIMEAIELGLLNDEEEEVLADVRDELVAAIAANPDLTDAELAALADDAVARLRERLLALQ
B5: GBRAP_184_5123 (protein)
chain: TLINASVEADDAEELIAKAEAVVKEAAAKGAKLNLHVFAKNLSVEEVIKVIKALGELKKKYPQVEITLDVLDERNEEEVDKLVKAADEAGVRLVVALKEE
B6: GBRAP_80_6863 (protein)
chain: MEEKIKEALELAKEVSEELAKLFEELIKALKELGVSDEDIARIAELVADIIKLDPELALEALKEMLKAAKEYKKEGKGEEALVEVLGIAGEALMEALEKE
B7: GBRAP_184_5114 (protein)
chain: KTLEKEIEVNDVAEAKEKLAAAIAEAVKEKANLNIIVKVKNATVELAKAIMEELAAGKKAGIKNVNVLFESDNITEEVIDALLKTADELGLKNVVIASKE
B8: GBRAP_52_6238 (protein)
chain: MEERLRALAEEILALVRAGDEEGARALARELAATLNEEELRLFIEEFARLAREAPREEIDDVWRAAEIVAEALEEAGWPDVLVDELEARVAAALVEVEER
B9: GBRAP_128_3234 (protein)
chain: MDPELRARVEALIETIINGDVEEAAAATAELVALMGEVSDEEAEEIAELLIEALKDLSVEKLETVADTIEANRGTLDPEKANLANDVLIEALNLAEELEE
B10: GBRAP_52_6105 (protein)
chain: MRERLREEALAILELVKAGRLEEARERIRELVERLNDEELRLLADEIARIAREAAPEDLDAVWRLAEMLAEELERAGKDEVLVDYLLSSTAAALYEREQA
B11: GBRAP_160_4663 (protein)
chain: SEEIEKTLEEIRELLLETLRWTRDLNAEDRRALLDATVGDVLQILFENPLVTDEVEDYAEKVLTELREYVLSNPDLTDEEIEELVEEVVEKIREKIEEES
B12: GBRAP_83_6966 (protein)
chain: MEKITVATTADHVDSAIEAARDLAEEEGYEVTVELIGSPEEVLASARKVAAALKDIPNVEILAAVERVRPEEAERLRRELAAIGEEYGLKVEVRYDIVEP
B13: GBRAP_125_3004 (protein)
chain: AKEEAAANMREIALAAGFSESLAEELAQLVLAGSVRNALAAFALALGNEEAAELIRQLTEEQAVAVVAELAAIARAEGPMSEEEMAARLLALAKAALAAQ
B14: GBRAP_74_6565 (protein)
chain: SEELIEEIKKVAEEKSIKEFAEFILEHIDELDEESLLVALKELLEKVKKEKDKITKEEAELVAEAAAALADKAFTSDASEETLKAAQELIKEVIEIEKKL
B15: GBRAP_128_3203 (protein)
chain: ASPEAVAALRELADRVAATRTDADIAAFAAAIAAALRAGELDLDTLEEIVRYLGSKLDEEDIARAEAALRAALADVGAEALAVALGALGEVLMEKFEKEE
B16: GBRAP_128_3156 (protein)
chain: SVEEVRKKTRELLEKIKESDDETARELARELFELIGTLSPEEAEAAVEVILERLPELSEEKLEILADVAREMMPKYDPYKANLLAEVEVEALNEAEELEE
B17: GBRAP_11_2660 (protein)
chain: KKEIYEEMAKLAEELAKALEELIKKGVDDEELIEKIEKLLEEIEKLAEEHADEAIKSDVEVAKELWEEFKKDPENKEQYAKELLAAVRVLHGNLLLEADE
B18: GBRAP_11_2930 (protein)
chain: KKEELEKAAKLADEIAKQLTAAIESGVVDPATLAEIRKKLEELAKLVEKYGDEYEKEIAQEAKEELEKAEADPETALEHLEDARGYVIELEGLLLLRIEE
B19: GBRAP_80_6819 (protein)
chain: MEEEIERHLREIEEIDPELAEIVRRAVEIAKELGVPLEEIARLVKALAELAKLDLERARELAEELLRELEEARKRGDREYALAEVVDATSEALLEVEELE

What follows are binders tested against GABARAP, O95166 (assay: median log2 fold change of GCK-ALFA target abundance (FLAG IP / Myc IP barcode read proportion) (log2 ratio); each designed protein is fused to an ALFA-tag nanobody in HEK293 cells to bring the named protein to FLAG-tagged glucokinase (GCK); Myc marks an untargeted standard; higher = target protein stabilised (more abundant)). Conditions: target protein: 3xFLAG-MCP-GCK-ALFA reporter; HEK293 landing pad (RPLP).
Summary of the method: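 The readout is target abundance, the per-binder median log2 ratio of FLAG to Myc barcode read proportions. It came from HEK293 landing-pad cells carrying a recombined ALFA-nanobody-fused binder library, induced with 2 μg mL^−1 doxycycline and transfected with a plasmid for a FLAG-tagged target and a Myc-tagged standard. After 48 h, lysates were immunoprecipitated with anti-FLAG and anti-Myc, and circular RNA barcodes were reverse transcribed, amplified and sequenced. Each barcode needed a proportion of at least 10^−7 in both replicates and each binder at least 3 barcodes per replicate, a pseudocount of 10^−6 was added, and the replicates were pooled.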

Chain of GABARAP, O95166 (O95166 whole entry, the tested form may be a part): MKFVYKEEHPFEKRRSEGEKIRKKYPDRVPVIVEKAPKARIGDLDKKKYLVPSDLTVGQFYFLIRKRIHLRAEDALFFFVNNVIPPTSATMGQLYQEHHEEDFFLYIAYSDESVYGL

Row | Binder | median log2 fold change
1 | B1 | 0.245
2 | B2 | -0.289
3 | B3 | 0.0739
4 | B4 | -0.0228
5 | B5 | -0.0195
6 | B6 | 0.0754
7 | B7 | 0.119
8 | B8 | -0.39
9 | B9 | -0.0001
10 | B10 | 0.0244
11 | B11 | -0.169
12 | B12 | 0.0823
13 | B13 | 0.145
14 | B14 | -0.00918
15 | B15 | 0.0555
16 | B16 | -0.269
17 | B17 | 0.304
18 | B18 | 0.208
19 | B19 | 0.139

Reference: the supplement of paper PMC12632987
